Measured values published in article PMC4336329 (PLoS ONE, 2015).
The campaign covered roughly 310,000 compounds. About 2,200 (0.71%) showed an effect of 50% or more. The effect is printed as a negative number. The list shows a part of the results.

These compounds were tested against human ether-à-go-go-related gene (hERG) potassium channel (human, UniProt Q12809) (assay: primary screen, population patch clamp on CHO cells stably expressing hERG).
human ether-à-go-go-related gene (hERG) potassium channel, sequence (Q12809 whole entry, looked up): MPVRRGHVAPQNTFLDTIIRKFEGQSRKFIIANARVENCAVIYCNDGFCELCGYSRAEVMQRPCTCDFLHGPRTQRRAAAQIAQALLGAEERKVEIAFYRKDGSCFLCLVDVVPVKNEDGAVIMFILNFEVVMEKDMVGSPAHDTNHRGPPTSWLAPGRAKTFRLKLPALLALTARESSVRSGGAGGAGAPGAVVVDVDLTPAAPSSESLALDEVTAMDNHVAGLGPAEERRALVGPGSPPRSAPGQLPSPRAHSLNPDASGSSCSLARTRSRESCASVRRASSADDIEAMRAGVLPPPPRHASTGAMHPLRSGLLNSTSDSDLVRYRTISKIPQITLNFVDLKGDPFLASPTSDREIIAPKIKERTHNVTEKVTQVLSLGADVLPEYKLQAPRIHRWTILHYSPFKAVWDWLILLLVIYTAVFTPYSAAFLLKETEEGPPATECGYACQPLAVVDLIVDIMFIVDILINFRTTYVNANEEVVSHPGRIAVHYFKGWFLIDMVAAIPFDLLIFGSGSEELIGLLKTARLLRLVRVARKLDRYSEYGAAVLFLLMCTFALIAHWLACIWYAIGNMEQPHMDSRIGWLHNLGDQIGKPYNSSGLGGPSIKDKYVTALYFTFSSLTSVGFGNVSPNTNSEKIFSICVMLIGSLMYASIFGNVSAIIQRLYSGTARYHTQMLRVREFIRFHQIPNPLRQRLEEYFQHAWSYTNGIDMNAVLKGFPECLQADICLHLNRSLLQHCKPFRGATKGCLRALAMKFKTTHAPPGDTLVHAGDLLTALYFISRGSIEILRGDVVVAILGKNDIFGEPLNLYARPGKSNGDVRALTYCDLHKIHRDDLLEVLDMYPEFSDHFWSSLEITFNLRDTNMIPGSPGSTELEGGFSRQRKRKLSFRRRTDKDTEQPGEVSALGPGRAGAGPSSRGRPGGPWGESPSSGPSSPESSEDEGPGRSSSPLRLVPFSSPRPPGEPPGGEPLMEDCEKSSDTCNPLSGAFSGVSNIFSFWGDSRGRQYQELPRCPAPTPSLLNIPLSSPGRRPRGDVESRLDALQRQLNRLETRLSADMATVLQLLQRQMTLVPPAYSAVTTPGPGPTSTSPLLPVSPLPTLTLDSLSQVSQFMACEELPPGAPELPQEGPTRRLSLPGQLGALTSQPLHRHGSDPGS

SMILES	hERG current change (%, negative = inhibition) at 1uM [%]
CCC(CC)n1[nH]c(=O)c2c(C)cc(C)nc21	9.03
Cc1cc(C)cc(C(=O)NCC(=O)OCc2cc([N+](=O)[O-])cc3c2OCOC3)c1	2.64
Cc1cccc(CSCCNC(=O)CSCc2ccc([N+](=O)[O-])cc2)c1	-7.73
O=C(Nc1cc([N+](=O)[O-])ccc1N1CCCC1)c1ccco1	-4.14
O=C1CCCc2c1sc1nc3n(c(=O)c21)CCCCC3	11.7
O=C(CS(=O)CC(=O)N(CC(=O)NC1CCCC1)c1ccccc1F)Nc1ccc(F)cc1 (stereo not drawn)	15.6
COc1ccc(NC(=O)c2cccc(N3C(=O)C4C5CCC(C5)C4C3=O)c2)cc1 (stereo not drawn)	16.8
COCCN1CCN(C(=O)C2CCC(=O)N(CCc3cccc(F)c3)C2)CC1 (stereo not drawn)	2.31
Cc1nn(-c2ccccc2)c2[nH]c(=O)cc(C(F)F)c12	10.7
C=CCn1c(Cc2csc(N)n2)nnc1SCC(=O)Nc1ccc(C(=O)OCC)cc1	4.85
CC(/C=C/c1ccccc1F)=N\NC(=O)c1ccccc1	7.5
CN(C1CCCCC1)S(=O)(=O)c1cn(C)c(=O)n(C)c1=O	9.96
O=C(c1cccc(NS(=O)(=O)c2ccccc2)c1)N1CCN(c2ccccc2)CC1	12.9
Cc1ccc(C(=O)N/C(=C\c2ccccc2)C(=O)NCCCn2ccnc2)cc1	-87
Oc1ccc(/C=N/n2c3ccccc3c3ccccc32)cc1	2.42
CCCCOC(=O)/C=C\C(=O)NC(N)=O	14
COc1ccc(NC(=S)NC(=O)C2CCCCC2)cc1	3.06
O=C(Nc1cc(Br)ccc1O)c1cc(-c2ccc3c(c2)OCO3)on1	6.96
O=C1CC(c2ccc(O)cc2)Oc2cc(O)ccc21 (stereo not drawn)	12
COc1ccc(-c2nnn(CC(=O)c3c[nH]c4ccccc34)n2)cc1OC	5.24
CC(C)Oc1ccccc1/C=N/NC(=O)c1ccc(F)cc1	1.35
Cc1ccc(C2(c3ccc(C)cc3)NC(=O)N(Cc3c(C)noc3C)C2=O)cc1	-2.1

SMILES	hERG current change (%, negative = inhibition) at 1uM [%]
CCOc1ccc(N(C(C)=O)c2nc(C)cc(C)c2C#N)cc1	6.86
O=C(CNS(=O)(=O)c1ccccc1)N1CCN(Cc2ccccc2)CC1	11.3
Cc1sc2nc(CN3CCN(c4ccc(O)cc4)CC3)[nH]c(=O)c2c1C	13.1
O=C(CSc1ccsc1[N+](=O)[O-])NCCc1ccccc1	3.59
c1ccc(-c2cc(N3CCCCC3)c3ccccc3n2)cc1	11.9
CC(C)Cc1nnc(NC(=O)c2cccc(S(=O)(=O)N3CCN(C)CC3)c2)s1	11.3
Cc1ccc(/C=C/C(=O)NC(=S)Nc2ccc(S(=O)(=O)Nc3cc(C)on3)cc2)cc1	14.1
O=C1C=C(c2cc(C(F)(F)F)cc(C(F)(F)F)c2)C[C@@H](c2ccc3c(c2)OCO3)C1	14
COc1ccc2ccccc2c1/C=N/NC(=O)c1ccc([N+](=O)[O-])cc1	15.2
COCCn1c(=NC(=O)C2COc3ccccc3O2)sc2cc(S(N)(=O)=O)ccc21 (stereo not drawn)	3.87
c1ccc(CCNc2cnccn2)cc1	15.2
O=C(CNc1ccccc1)c1ccc([N+](=O)[O-])cc1	2.78
O=C(C(Cl)c1ccccc1)N1CCOCC1 (stereo not drawn)	12.3
Cc1ccc(C)c(S(=O)(=O)N2CCN(C(=O)C3CCN(C(=O)c4ccc(F)cc4)CC3)CC2)c1	-4.34
COc1cccc(NC(=S)N2CCCN(Cc3ccc(F)cc3)C2)c1	-7.19
COc1cc(CN2CCN(C(O)(c3ccccc3)c3ccccc3)CC2)cc(OC)c1OC.O=C(O)C(=O)O	-9.5
O/N=C/c1ccc(OCc2ccccc2)c(Cl)c1	5.06
Cc1cc(C)c2nc3nc(C)cc(C)c3c(N)c2c1	-41
CCc1cccc(NC(=O)CCCCCC2NC(=O)NC2C)c1 (stereo not drawn)	14.5
NC(=O)C1=C[C@@H](c2coc3ccccc3c2=O)C[C@@H](OCc2ccc(CO)cc2)O1	8.71
C[N+]1(C)CCCC(OC(=O)C(O)(c2ccccc2)c2ccccc2)C1.[Br-] (stereo not drawn)	13.7
C=COc1ccc(N2C(=O)c3ccccc3OC2C)cc1 (stereo not drawn)	11.1

SMILES	hERG current change (%, negative = inhibition) at 1uM [%]
OC(COc1ccc(CNCCc2ccc(C(F)(F)F)cc2)cc1)CN1CCCCC1 (stereo not drawn)	13.9
COCCNC(=O)CSc1ccccc1C(=O)O	13.4
COc1ccc(N2CCN(C(=O)CNC(=O)c3cn(-c4ccccc4OC)c(=O)c4ccccc34)CC2)cc1	0.742
COc1cc(CN2CCCC(CO)(Cc3cccc(Cl)c3)C2)cc2c1OCO2 (stereo not drawn)	-15.4
COc1ccc(/C=N\NC(=O)c2ccc(-c3ccccc3)cc2)cc1COC(C)=O	10.9
CCOc1cc(S(=O)(=O)N2CCC(Cc3ccccc3)CC2)c(OCC)cc1-n1cnnn1	16.5
CCCCc1cc(=O)oc2cc(C)cc(OCC(=O)NCC3CCC(C(=O)O)CC3)c12 (stereo not drawn)	5.59
O=C(COC(=O)c1ccc(O)cc1O)NC1CCS(=O)(=O)C1 (stereo not drawn)	6.44
CN1C(=O)C(C(=O)Nc2ccccc2F)c2ccccc21 (stereo not drawn)	-0.379
C/C(=N\Nc1ccccc1)c1c(O)[nH]c(=O)[nH]c1=O	11.8
COc1cc(NC(=O)c2cccs2)ccc1NC(=O)Cc1ccccc1	9.57
O=C(OCC(=O)N1CCN(c2ccccc2)CC1)c1ncc(Cl)c(Cl)c1Cl	11.2
O=C(Nc1cccc(Cl)c1)Nc1ccnc(-c2cccnc2)n1	3.23
Cc1ccccc1N1C(=O)CC1(C#N)c1ccc(OCc2ccccc2)cc1 (stereo not drawn)	10.4
CC(C)CCN1CCN(Cc2ccc(C#CCCO)cc2)CC1CCO (stereo not drawn)	5.37
COc1nc(C)nc2c1sc1nc3c(cc12)COC(C)(C)C3	17.4
Cc1cc2nc(CSc3ccccc3)cc(=O)n2[nH]1	16.1
CC1CCN(Cc2c(O)ccc3c(=O)c(-c4nc5ccccc5s4)c(N)oc23)CC1	-0.932
Cc1ccc(-c2csc(N3CCN(c4ccc5nc(-c6ccncc6)n(CCN6CCCCC6)c5c4)CC3)n2)cc1	17
O=C(c1ccc(F)cc1)N(NC(=O)C(O)(c1ccccc1)c1ccccc1)c1ccccc1	-1.15
CC(=O)Nc1ccc(N/C=C/C(=O)c2ccco2)cc1	10.2
Cc1cccc2cc(CN(Cc3ccc4c(c3)OCO4)Cc3nnnn3C3CCCC3)c(=O)[nH]c12	2.01

SMILES	hERG current change (%, negative = inhibition) at 1uM [%]
Cc1cc(C(=O)N/N=C2\CC(=O)c3ccccc32)c(C)n1-c1ccccc1	13.3
COc1ccccc1CN1CCCC(N2CCN(c3ccc(F)cc3)CC2)C1 (stereo not drawn)	-21.4
CCc1cc2c(C)ccc(C)c2nc1SCC(=O)Nc1c(C)[nH]c(=O)[nH]c1=O	4.46
O=C(CCCC1=NS(=O)(=O)c2ccccc2N1)Nc1ccccc1	-4.42
CC(=O)c1sc(NC(=O)COc2ccc(C)c(C)c2)nc1C	5.95
CC(C)(C)n1ncc2c(=O)n(Cc3ccc(Cl)c(Cl)c3)cnc21	5.72
O=C(NC1CCCCC1)Sc1ccc(Cl)cc1	2.09
O=C(COC(=O)c1ccc([N+](=O)[O-])o1)Nc1cccc(S(=O)(=O)N2CCCCC2)c1	-15.9
Cc1ccccc1-c1noc(CCC(=O)NC2CCCCC2)n1	10.6
COc1ccc(/C=N/NC(=O)c2ccc(NC(=O)c3cccc([N+](=O)[O-])c3)cc2)c(C(=O)O)c1OC	11.3
COC(=O)CSc1nnc2n(C3CCCCC3)c(=O)c3c4c(sc3n12)CCCC4	1.02
COc1ccc(C(=O)Nc2ccc3nc(C)sc3c2)cc1OC	6.38
O=S1(=O)CCN2C(Cc3ccc(SC(F)F)cc3)=CSC2=N1	-3.49
CCOC(=O)c1c(/N=C/N(C)C)sc(/C=N/Nc2ccccc2)c1-c1ccccc1	6.65
CCN1CCN(C(=S)Nc2ccc(Cl)c(Cl)c2)CC1	11.9
CC1CCc2cc(F)cc3c(O)c(C(=O)NCC4CCCO4)c(=O)n1c23 (stereo not drawn)	-1.81
COc1ccc(Nc2cccc(Cl)c2)c(C(=O)O)c1	3.16
CCOP(=S)(OCC)C(O)CCCCCn1c(=O)c(F)cn(C2CCCO2)c1=O (stereo not drawn)	8.04
COc1ccc(C(=O)N(C)c2ccccc2C(=O)NCCc2ccccc2)cc1	3.87
O=C(Nc1ccncc1)c1sc2ccccc2c1Cl	11.2
CCCCOc1ccc(C(=O)NCC(=O)NCC2CCCO2)cc1 (stereo not drawn)	7.53
